Reference: the supplement of paper PMC4723716
Over roughly 3,600 compounds, “viability index relative to DMSO control” has its median near 0.81; the lowest 2% begin near 0.13. This is one part of the list.

Tested on: Plasmodium falciparum NF54 stage V gametocytes
Experiment: viability index relative to DMSO control (fraction); higher = less gametocyte killing
Settings: 1.25 µM, incubation time: 72 h
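Further: 384-well serum-free SaLSSA: MitoTracker Red CMXRos staining with saponin lysis, high-content imaging, treated-well particle count divided by plate-mean count of DMSO wells.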

Row | SMILES | viability index
1 | O=c1c2cnn(-c3ccccc3)c2nc(-c2ccccc2F)n1-c1ccc(Br)cc1 | 0.894
2 | COc1ccccc1-n1nnnc1SCC(=O)Nc1cc([N+](=O)[O-])ccc1C | 0.935
3 | O=C(Nc1ccc(-c2nc3cc(NC(=O)c4ccc(Cl)cc4)ccc3[nH]2)cc1)c1ccc(Cl)cc1 | 0.754
4 | CCn1ncc(CN2CCC(C(=O)Nc3ccccc3-c3cccc(OC)c3)CC2)c1C | 0.75
5 | CN1CCc2c(C#N)c(N3CCCC3)nc(N3CCCC3)c2C1 | 1.04
6 | COc1cccc(C(=O)C[n+]2cc(-c3ccc(Cl)cc3)n3c2CCC3)c1 | 0.991
7 | COc1cccc(CN2CCN(C3CCCC(C)C3)CC2)c1OC (centres undefined) | 1.07
8 | CCOC(=O)C1=C(C)N=c2sc(=Cc3cc(Br)ccc3O)c(=O)n2C1c1ccccc1 (centres undefined) | 0.736
9 | CCOC(=O)c1c(NC(=O)C(C)Sc2nnc(CNC(=O)c3ccco3)n2-c2cccc(C(F)(F)F)c2)sc2c1CCC2 (centres undefined) | 0.751
10 | O=C(NC1CC1)c1ccc(N2C(=O)C3C4c5ccccc5C(c5ccccc54)C3C2=O)cc1 (centres undefined) | 0.632
11 | COc1ccc(Nc2nc(NCc3ccco3)c3ccccc3n2)cc1 | 0.633
12 | Cc1cc(C)nc(SCc2cc(=O)c(OC(=O)c3cccc([N+](=O)[O-])c3C)co2)n1 | 1.07
13 | O=C1c2ccccc2-c2nnc(-c3ccc(Br)cc3)cc21 | 1.05
14 | COc1ccc2[nH]c3c(c2c1)CCNC3c1ccc(OC)c(CSc2nnc(-c3ccccc3)o2)c1 (centres undefined) | 1.1
15 | O=c1c2c([nH]c3ccccc13)CCCCCCCCCC2 | 0.651
16 | CCC12C(=O)C(CC)(C(c3ccccc3)=C1c1ccccc1)C1C(=O)N(c3cccc(C(F)(F)F)c3)C(=O)C12 (centres undefined) | 0.772
17 | O=C(Nc1ccc(Br)cc1C(=O)c1ccccc1)c1cc2nc(-c3cccs3)cc(C(F)(F)F)n2n1 | 0.653
18 | COc1ccc(CN(Cc2cc3cccc(C)c3[nH]c2=O)C(=S)NC2CCCCC2)cc1 | 0.824
19 | CCN(CC)c1nc(NN=Cc2cccc([N+](=O)[O-])c2OC)nc(Nc2ccccc2)n1 | 0.834
20 | CC(C)(C)c1ccc2c(c1)CN(C1CCCCC1)CO2 | 0.332
21 | N#Cc1c(N)nc(C(Cl)(Cl)Cl)nc1-c1ccccc1 | 1.27
22 | O=C(N1CCCCC1)n1nnc2ccccc21 | 0.694
23 | Cc1ccc2nc3nc4c(C)cccc4c(N)c3cc2c1 | 0.387
24 | Cc1c(Cc2ccccc2)sc(N=Cc2ccc(Br)s2)c1C(N)=O | 1.02
